{"source": "PubChem BioAssay AID2675", "about": "(National Center for Advancing Translational Sciences (NCATS), 2010)", "note": "Hit rate of the full screen: of about 280,000 compounds, about 100 (0.036%) were called active. The inconclusive results got no clear call from the source; some entries with a clear call stand among them for comparison. The call rests on the fitted dose curve; in most records, active means well fitted inhibition curve with a large enough effect in the signal ratio, with a control signal flat (not every such curve was filed as active); inconclusive means small, poorly fitted or top-dose-only effect, or effect the other way, or a change in a side signal; inactive means no such curve, though single readings can be large or run the other way; the % refers to the signal ratio. Where the call is inconclusive, the potency comes from a doubtful curve fit. “Side channel” marks fits to a control or component signal instead of the main read-out. Potency means the concentration at half of the fitted maximal effect; tags describe the fitted curve by direction and shape or compound fluorescence and quenching.", "data": [{"target": "Muscleblind-like protein 1 (Homo sapiens) (UniProt Q9NR56)", "sequence (Q9NR56 whole entry, looked up)": "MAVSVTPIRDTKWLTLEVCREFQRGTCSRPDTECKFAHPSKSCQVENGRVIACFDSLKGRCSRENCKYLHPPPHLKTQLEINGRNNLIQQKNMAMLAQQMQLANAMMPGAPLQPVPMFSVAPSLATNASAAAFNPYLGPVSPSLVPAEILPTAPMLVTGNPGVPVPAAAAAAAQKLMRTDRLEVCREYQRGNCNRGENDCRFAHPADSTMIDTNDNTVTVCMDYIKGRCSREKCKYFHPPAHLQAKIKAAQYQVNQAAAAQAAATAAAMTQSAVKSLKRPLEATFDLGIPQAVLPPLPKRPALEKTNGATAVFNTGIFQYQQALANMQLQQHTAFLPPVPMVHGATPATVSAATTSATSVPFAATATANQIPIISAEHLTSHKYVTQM", "experiment": "qHTS Assay for Inhibitors of MBNL1-poly(CUG) RNA binding", "conditions": "TR-FRET MBNL1-His/biotin-(CUG)12 binding, 665/545 ratio; series mostly up to 57.5 µM", "procedure,_shortened": "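TR-FRET between His-tagged MBNL1 and biotin-(CUG)12 RNA, detected with Tb anti-His antibody (0.055 ng/ul) and streptavidin-XL665 (5 nM), 60 min at room temperature. Compounds titrated 92 nM to 58 uM; 665/545 nm ratio normalized to buffer and complex controls.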", "values": [{"smiles": "Cc1nc(N[C@@H](Cc2c[nH]c3ccccc23)C(=O)O)c2oc3ccccc3c2n1", "Potency": "inconclusive: 17.8 µM [quencher, side channel, single point]"}, {"smiles": "CCOC(=O)c1nnc(-c2cccs2)nc1NC(C)C", "Potency": "inconclusive: 28.2 µM [quencher, side channel, single point]"}, {"smiles": "COc1ccc(NC(=S)NCCc2c[nH]c3ccc(OC)cc23)c(OC)c1", "Potency": "inactive"}, {"smiles": "Cc1cc(C(=O)N/N=C/c2ccc(-c3cccc(Cl)c3Cl)o2)n[nH]1", "Potency": "inconclusive: 0.112 µM [fluorescent, side channel, full curve]"}, {"smiles": "O=C(N/N=C/c1sc(=O)n(-c2ccccc2)c1Cl)c1ccncc1", "Potency": "inconclusive: 3.98 µM [quencher, side channel, full curve]"}, {"smiles": "c1ccc(-n2ncc3c2ncn2nc(-c4ccco4)nc32)cc1", "Potency": "inconclusive: 35.5 µM [fluorescent, side channel, single point]"}, {"smiles": "COc1ccc(Br)cc1C1N2CC3(C)CN1CC(C)(C2)C3=O", "note": "(configuration not stated)", "Potency": "inconclusive: 50.1 µM [fluorescent, side channel, partial curve, poor fit]"}, {"smiles": "O=[N+]([O-])c1ccc(N2CCOCC2)cc1NCCCO", "Potency": "inconclusive: 8.91 µM [quencher, side channel, full curve]"}, {"smiles": "Cc1cc(NC(=O)COC(=O)[C@H](Cc2c[nH]c3ccccc23)NC(=O)c2ccc(F)cc2)no1", "Potency": "inconclusive: 126 µM [inhibitor, single point]"}, {"smiles": "Fc1cccc(CN2CCN(c3nc4nonc4nc3NC3CC3)CC2)c1", "Potency": "inconclusive: 12.6 µM [quencher, side channel, partial curve, poor fit]"}, {"smiles": "O=C(NCCO)c1cc([N+](=O)[O-])cc2c1C=Cc1ccccc1O2", "Potency": "inconclusive: 10 µM [quencher, side channel, full curve]"}, {"smiles": "CN(C)CCNC(=O)Nc1ccc([N+](=O)[O-])cc1", "Potency": "inconclusive: 15.8 µM [quencher, side channel, partial curve]"}, {"smiles": "COc1cccc(/C=N/Nc2ncccc2[N+](=O)[O-])c1OC", "Potency": "inconclusive: 14.1 µM [quencher, side channel, partial curve]"}, {"smiles": "CC(=O)/C=C\\c1ccc(OC(=O)c2cccnc2)cc1", "Potency": "inactive"}, {"smiles": "CCOCc1nnc(NC(=O)c2ccc(OC)cc2)s1", "Potency": "inactive"}, {"smiles": "O=C1C(Cl)=C(Nc2cccc(O)c2)C(=O)N1Cc1ccccc1", "Potency": "inconclusive: 28.2 µM [quencher, side channel, single point]"}, {"smiles": "CC(=O)Nc1ccc(S(=O)(=O)N[C@@H](C)C(=O)OCc2cc([N+](=O)[O-])cc3c2OCOC3)cc1", "Potency": "inconclusive: 22.4 µM [quencher, side channel, partial curve]"}, {"smiles": "Cc1ccc(CCNS(=O)(=O)c2ccc3c(c2)C(C)(C)C(=O)N3C)cc1", "Potency": "inactive"}, {"smiles": "O=[N+]([O-])c1ccc(S(=O)(=O)N2CCN(Cc3ccco3)CC2)cc1", "Potency": "inconclusive: 11.2 µM [quencher, side channel, partial curve]"}, {"smiles": "Cc1cccc(NC(=O)CN2C(=O)N/C(=C\\c3ccc(N4CCOCC4)cc3)C2=O)c1", "Potency": "inconclusive: 0.1 µM [quencher, side channel, full curve, poor fit]"}, {"smiles": "Nn1c(-c2cccc([N+](=O)[O-])c2)nc2ccccc2c1=O", "Potency": "inconclusive: 28.2 µM [quencher, side channel, partial curve]"}, {"smiles": "COc1ccccc1C(=O)N1CCN(Cc2nc3cc([N+](=O)[O-])ccc3n2C)CC1", "Potency": "inconclusive: 12.6 µM [quencher, side channel, partial curve]"}, {"smiles": "O=C(NCCCN1CCOCC1)c1ccc(Cl)cc1[N+](=O)[O-]", "Potency": "inconclusive: 22.4 µM [quencher, single point]"}, {"smiles": "COc1ccc(CC(=O)N/N=C/c2cccs2)cc1OC", "Potency": "inconclusive: 28.2 µM [quencher, side channel, single point]"}, {"smiles": "CC1CC(C)CN(S(=O)(=O)c2ccc(C(=O)Nc3sccc3C(N)=O)cc2)C1", "note": "(configuration not stated)", "Potency": "inactive"}, {"smiles": "O=C1/C(=C/c2ccccc2F)SC(=S)N1CCC(=O)N1CCCCC1CCO", "note": "(configuration not stated)", "Potency": "inconclusive: 14.1 µM [quencher, side channel, partial curve]"}, {"smiles": "CCC(C)c1ccc(O)c(NC(=O)c2cccnc2)c1", "note": "(configuration not stated)", "Potency": "inactive"}, {"smiles": "CCCn1c(=N)c(C(=O)NC2CCCC2)cc2c(=O)n3cccc(C)c3nc21", "Potency": "inconclusive: 1.78 µM [quencher, side channel, full curve]"}, {"smiles": "O=C(O)c1cn(-c2ccc(N3CCCC3)c(F)c2)c2c(F)c(F)c(F)cc2c1=O", "Potency": "inconclusive: 39.8 µM [fluorescent, single point]"}, {"smiles": "Cc1ccc(C2NC(=O)c3c(sc4c3CCN(C)C4)N2)o1", "note": "(configuration not stated)", "Potency": "inconclusive: 14.1 µM [quencher, side channel, partial curve]"}, {"smiles": "O=[N+]([O-])c1ccccc1/C=N/OCc1ccccc1", "Potency": "inconclusive: 28.2 µM [quencher, side channel, single point]"}, {"smiles": "CCC1(C)Cc2c(sc3c2c(=O)n(C)c2nnc(SCCc4ccccc4)n32)CO1", "note": "(configuration not stated)", "Potency": "inactive"}, {"smiles": "O=C(N1CCCCC1)N1CCN(S(=O)(=O)c2cccc([N+](=O)[O-])c2)CC1", "Potency": "inconclusive: 15.8 µM [quencher, partial curve]"}, {"smiles": "COc1cc(OC)c(-c2sc(Nc3ccccc3)n[n+]2-c2ccc(F)cc2)cc1OC", "Potency": "inconclusive: 35.5 µM [quencher, side channel, partial curve]"}, {"smiles": "CN(CC(=O)N1CCN(c2ccccn2)CC1)S(=O)(=O)c1cccc2nsnc12", "Potency": "inconclusive: 7.08 µM [quencher, side channel, partial curve]"}, {"smiles": "O=C(O)c1cccn2c(=O)c3ccccc3nc12", "Potency": "inconclusive: 22.4 µM [quencher, side channel, partial curve]"}, {"smiles": "CNC(=O)/C(C#N)=C/c1c(N2CCN(c3ccccc3)CC2)nc2c(C)cccn2c1=O", "Potency": "inconclusive: 2.51 µM [quencher, full curve, poor fit]"}, {"smiles": "Cc1cccc(-n2c(SCC(N)=O)nc3c(c2=O)C2(CCCCC2)Cc2ccccc2-3)c1", "Potency": "inconclusive: 0.126 µM [quencher, side channel, full curve, poor fit]"}, {"smiles": "C[C@H](CO)NC(=O)[C@H](C)[C@@H]1C[C@@]1(C)[C@@H](NC(=O)OCc1ccccc1)c1ccccc1", "Potency": "inconclusive: 8.91 µM [fluorescent, side channel, single point]"}, {"smiles": "NC(=O)COC(=O)c1sc2ccccc2c1Cl", "Potency": "inconclusive: 28.2 µM [quencher, side channel, partial curve]"}, {"smiles": "Cc1ccc2[nH]c3c(c2c1)CN(C(=O)CN1CCCc2ccccc21)CC3", "Potency": "inconclusive: 17.8 µM [quencher, side channel, partial curve]"}, {"smiles": "CNc1nnc(-c2ccc(N(C)C)cc2)s1", "Potency": "inconclusive: 31.6 µM [quencher, side channel, single point]"}, {"smiles": "CCC(CC)C(=O)Nc1ccc(-c2cn3cccnc3n2)cc1", "Potency": "inconclusive: 28.2 µM [quencher, side channel, single point]"}, {"smiles": "COC(=O)CSc1nc(C)c(C(=O)Nc2ccccc2C)c(-c2ccc(Cl)cc2)c1C#N", "Potency": "inconclusive: 0.501 µM [fluorescent, side channel, partial curve]"}, {"smiles": "O=C(O)CC(C(=O)O)N1C(=O)/C(=C/C=C/c2ccco2)SC1=S", "note": "(configuration not stated)", "Potency": "inconclusive: 17.8 µM [quencher, side channel, partial curve]"}, {"smiles": "O=C(CC1C(=O)NCCN1CC1CCCCC1)NCc1cccc(F)c1F", "note": "(configuration not stated)", "Potency": "inactive"}, {"smiles": "Cc1c(Cl)cccc1NC(=S)N1CCCN(Cc2ccc(F)cc2)C1", "Potency": "inactive"}, {"smiles": "O=C(CNc1ccc2ccccc2c1)N/N=C/c1ccncc1", "Potency": "inconclusive: 22.4 µM [quencher, side channel, partial curve]"}, {"smiles": "Cc1ccc(SCC(=O)Nc2ccc(F)cc2[N+](=O)[O-])cc1C", "Potency": "inconclusive: 22.4 µM [quencher, side channel, partial curve]"}, {"smiles": "COc1ccc(CNC(=O)C2CCN(S(=O)(=O)c3cccc4nonc34)CC2)cc1", "Potency": "inconclusive: 3.55 µM [quencher, side channel, full curve]"}, {"smiles": "O=c1c2ccccc2ncn1-c1ccc([N+](=O)[O-])cc1[N+](=O)[O-]", "Potency": "inconclusive: 14.1 µM [quencher, side channel, partial curve]"}, {"smiles": "Cc1ccnc(NC(=O)c2ccc3c(c2)S(=O)(=O)c2ccccc2C3=O)c1", "Potency": "inconclusive: 1.12 µM [quencher, side channel, full curve, poor fit]"}, {"smiles": "COc1ccc(-c2cc3ccc(OCC(C)=O)cc3oc2=O)cc1OC", "Potency": "inconclusive: 6.31 µM [quencher, side channel, partial curve]"}, {"smiles": "O=c1[nH]c2ccccc2nc1-c1ccc(Cl)cc1", "Potency": "inconclusive: 7.08 µM [quencher, side channel, partial curve, poor fit]"}, {"smiles": "O=C(NCC(O)CN1CCOCC1)c1ccc([N+](=O)[O-])cc1", "note": "(configuration not stated)", "Potency": "inconclusive: 15.8 µM [quencher, side channel, partial curve]"}, {"smiles": "CC(C)COC(=O)/C(C#N)=C/c1cn(Cc2ccccc2)c2ccccc12", "Potency": "inconclusive: 0.794 µM [fluorescent, side channel, single point]"}, {"smiles": "O=C(O)CCCNc1cc(N2CCC3(CC2)OCCO3)c2noc3c2c1C(=O)c1ccccc1-3", "Potency": "inconclusive: 15.8 µM [quencher, side channel, partial curve]"}]}]}
